Reference: the supplement of paper PMC12645437, “Orthogonal IMiD-Degron Pairs Induce Selective Protein Degradation in Cells” (ACS Chemical Biology, 2025)
The other results are listed elsewhere or left out.

B1: Q9UKT9 (peptide)
chain: FTCNVCGACFTQKGNLLRHIKL
B2: Q9UKT9 (peptide)
chain: FYCNQCGRAFTQKGNLLRHIKL
B3: Q9UKT9 (peptide)
chain: LICPICGFFCTQKGNLLRHIKL
B4: Q9UKT9 (peptide)
chain: FYCNICGAAFTQKGNLLRHIKL
B5: Q9UKT9 (peptide)
chain: FTCEICGAFFTQKGNLLRHIKL
B6: Q9UKT9 (peptide)
chain: FNCEICGAIFTQKGNLLRHIKL
B7: Q9UKT9 (peptide)
chain: FDCEICGRYFTQKGNLLRHIKL
B8: Q9UKT9 (peptide)
chain: FSCDQCGAEFTQKGNLLRHIKL
B9: Q9UKT9 (peptide)
chain: FMCPICGHNFTQKGNLLRHIKL
B10: Q9UKT9 (peptide)
chain: FHCNICGADFTQKGNLLRHIKL
B11: Q9UKT9 (peptide)
chain: FICNQCGAFFTQKGNLLRHIKL
B12: Q9UKT9 (peptide)
chain: FYCNQCGRLFTQKGNLLRHIKL
B13: Q9UKT9 (peptide)
chain: FQCPICGAVFTQKGNLLRHIKL
B14: Q9UKT9 (peptide)
chain: FRCNQCGRVFTQKGNLLRHIKL
B15: Q9UKT9 (peptide)
chain: FTCPICGHEFTQKGNLLRHIKL
B16: Q9UKT9 (peptide)
chain: FQCPICGARFTQKGNLLRHIKL
B17: Q9UKT9 (peptide)
chain: FSCPICGAGFTQKGNLLRHIKL
B18: Q9UKT9 (peptide)
chain: FDCDQCGAQFTQKGNLLRHIKL
B19: Q9UKT9 (peptide)
chain: FQCEVCGALFTQKGNLLRHIKL
B20: Q9UKT9 (peptide)
chain: LVCNQCGFVCTQKGNLLRHIKL
B21: Q9UKT9 (peptide)
chain: FFCDICGATFTQKGNLLRHIKL
B22: Q9UKT9 (peptide)
chain: FSCNQCGRKFTQKGNLLRHIKL
B23: Q9UKT9 (peptide)
chain: FTCDICGADFTQKGNLLRHIKL
B24: Q9UKT9 (peptide)
chain: FNCPICGRFFTQKGNLLRHIKL
B25: Q9UKT9 (peptide)
chain: LCCEICGFACTQKGNLLRHIKL
B26: Q9UKT9 (peptide)
chain: FHCEICGHMFTQKGNLLRHIKL
B27: Q9UKT9 (peptide)
chain: FVCDICGAFFTQKGNLLRHIKL
B28: Q9UKT9 (peptide)
chain: FNCNVCGAWFTQKGNLLRHIKL
B29: Q9UKT9 (peptide)
chain: LKCNQCGFWCTQKGNLLRHIKL
B30: Q9UKT9 (peptide)
chain: LTCPICGFMCTQKGNLLRHIKL
B31: Q9UKT9 (peptide)
chain: FTCNQCGHDFTQKGNLLRHIKL
B32: Q9UKT9 (peptide)
chain: FICEICGRSFTQKGNLLRHIKL
B33: Q9UKT9 (peptide)
chain: FQCDQCGAAFTQKGNLLRHIKL
B34: Q9UKT9 (peptide)
chain: FRCNQCGRDFTQKGNLLRHIKL
B35: Q9UKT9 (peptide)
chain: FKCEICGHVFTQKGNLLRHIKL
B36: Q9UKT9 (peptide)
chain: FWCDQCGAMFTQKGNLLRHIKL
B37: Q9UKT9 (peptide)
chain: FACNICGARFTQKGNLLRHIKL
B38: Q9UKT9 (peptide)
chain: FNCEICGACFTQKGNLLRHIKL
B39: Q9UKT9 (peptide)
chain: LECEICGFKCTQKGNLLRHIKL
B40: Q9UKT9 (peptide)
chain: FKCNVCGAHFTQKGNLLRHIKL
B41: Q9UKT9 (peptide)
chain: FCCSVCGHCFTQKGNLLRHIKL
B42: Q9UKT9 (peptide)
chain: LRCEICGFDCTQKGNLLRHIKL
B43: Q9UKT9 (peptide)
chain: FYCPVCGAGFTQKGNLLRHIKL
B44: Q9UKT9 (peptide)
chain: LWCPICGFMCTQKGNLLRHIKL
B45: Q9UKT9 (peptide)
chain: FLCDVCGATFTQKGNLLRHIKL
B46: Q9UKT9 (peptide)
chain: FWCNICGAFFTQKGNLLRHIKL
B47: Q9UKT9 (peptide)
chain: FYCEICGRLFTQKGNLLRHIKL
B48: Q9UKT9 (peptide)
chain: FGCNVCGAMFTQKGNLLRHIKL
B49: Q9UKT9 (peptide)
chain: FACPICGRPFTQKGNLLRHIKL
B50: Q9UKT9 (peptide)
chain: FECNQCGREFTQKGNLLRHIKL

target: no compound (DMSO); test: log2 fold change of degron read counts, EGFP-low vs EGFP+ sorted cells; higher = lower degron-EGFP level without compound (poor expression or instability); settings: compound: DMSO control; 18 h
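Also: jurkat cells carrying a lentiviral library of mutant zinc finger degrons fused to EGFP plus mCherry, mCherry+ cells FACS sorted, degron abundance counted by next-generation sequencing.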

Sequence | log2 fold change of degron read counts
B1 | -0.087
B2 | 0.222
B3 | 1.85
B4 | -0.979
B5 | -0.662
B6 | 0.399
B7 | 0.281
B8 | -1.69
B9 | -0.404
B10 | -1.24
B11 | -0.204
B12 | 1.06
B13 | -0.188
B14 | 0.319
B15 | -0.922
B16 | -0.52
B17 | -0.183
B18 | -2.78
B19 | -1.54
B20 | -0.606
B21 | -0.418
B22 | -0.0779
B23 | -2.72
B24 | 0.319
B25 | -0.547

Sequence | log2 fold change of degron read counts
B26 | -0.838
B27 | -0.549
B28 | 0.57
B29 | 1.32
B30 | 1.01
B31 | -1.79
B32 | -2.16
B33 | -1.74
B34 | -0.625
B35 | -2.78
B36 | -0.643
B37 | 0.512
B38 | -0.629
B39 | -2.39
B40 | -0.522
B41 | 0.538
B42 | -0.206
B43 | -0.759
B44 | 3.07
B45 | -2.36
B46 | 1.86
B47 | 0.282
B48 | -0.022
B49 | 0.16
B50 | -1.66
